How the values were obtained:
[1] = target: T1, Slit2-D2 (human); assay: ELISA, human Slit2-D2 coated on the plate, detection with peroxidase-conjugated anti-human IgG, absorbance at 450 nm
T1 construct: Used purified (ELISA, SPR) and expressed by transient transfection of pXL4911 in HEK293 cells (FACS); also called human Slit2-D2 protein; D2 domain of human Slit2
T1 chain: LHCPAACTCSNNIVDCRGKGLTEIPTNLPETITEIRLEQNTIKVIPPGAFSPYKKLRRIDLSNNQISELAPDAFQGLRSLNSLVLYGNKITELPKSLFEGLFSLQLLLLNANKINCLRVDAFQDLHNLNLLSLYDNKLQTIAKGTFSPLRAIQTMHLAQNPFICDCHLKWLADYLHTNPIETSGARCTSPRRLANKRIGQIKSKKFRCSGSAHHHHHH
Method: The human Slit2-D2 protein was bound to Immulon-4 enzyme-linked plates (VWR Scientific Inc. Swedesboro, N.J.). A concentration range (from 20 μg/mL to 0.02 μg/mL) of the Robo1-Fc L1 and Robo1-Fc L2 variants was added and then detected by means of the peroxidase-conjugated goat anti-human IgG antibody (Sigma; ref. A0170, dilution to 1:50 000). Visualization was carried out with the TMB-H₂O₂ substrate (Interchim; ref UP664780) and the measurements were carried out with a plate reader at 450 nm. […] [0083] c. Evaluation of the interaction of the Robo1-Fc protein with the human variants of the Slit family, namely Slit1 and Slit3

[2] = target: T1, Slit2-D2; assay: ELISA, Slit2-D2 coated, Robo1-Fc Slit2-minus titrated 20 to 0.02 µg/mL
Method: The D2 domain of the human Slit variants was bound to Immulon-4 enzyme-linked plates (VWR Scientific Inc. Swedesboro, N.J.). A concentration range (from 1 μg/mL to 0.001 μg/mL) of the Robo1-Fc L1 fusion protein was added and than detected using the peroxidase-conjugated goat anti-human IgG antibody (Sigma; ref. A0170, dilution to 1:50 000). Visualization was carried out with the TMB-H₂O₂ substrate (Interchim; ref UP664780) and the measurements were carried out with a plate reader at 450 nm. Similarly, the Robo1-Fc Slit2-minus variant, which is mutated at the level of the Slit2-binding site, was evaluated according to a concentration range (from 20 μg/mL to 0.02 μg/mL) by ELISA assay under the same conditions described above.

[3] = target: T2, Slit2-N (human, UniProt O94813 31-1121); assay: FACS on HEK293 cells transiently expressing Slit2-N; KD fitted from the FACS titration on HEK293 cells transiently expressing Slit2-N; weak, 43 nM against 1.2 nM for Robo1-Fc L1
T2 construct: In the FACS assay expressed by transient transfection of pXL5033 in HEK293 cells
T2 sequence: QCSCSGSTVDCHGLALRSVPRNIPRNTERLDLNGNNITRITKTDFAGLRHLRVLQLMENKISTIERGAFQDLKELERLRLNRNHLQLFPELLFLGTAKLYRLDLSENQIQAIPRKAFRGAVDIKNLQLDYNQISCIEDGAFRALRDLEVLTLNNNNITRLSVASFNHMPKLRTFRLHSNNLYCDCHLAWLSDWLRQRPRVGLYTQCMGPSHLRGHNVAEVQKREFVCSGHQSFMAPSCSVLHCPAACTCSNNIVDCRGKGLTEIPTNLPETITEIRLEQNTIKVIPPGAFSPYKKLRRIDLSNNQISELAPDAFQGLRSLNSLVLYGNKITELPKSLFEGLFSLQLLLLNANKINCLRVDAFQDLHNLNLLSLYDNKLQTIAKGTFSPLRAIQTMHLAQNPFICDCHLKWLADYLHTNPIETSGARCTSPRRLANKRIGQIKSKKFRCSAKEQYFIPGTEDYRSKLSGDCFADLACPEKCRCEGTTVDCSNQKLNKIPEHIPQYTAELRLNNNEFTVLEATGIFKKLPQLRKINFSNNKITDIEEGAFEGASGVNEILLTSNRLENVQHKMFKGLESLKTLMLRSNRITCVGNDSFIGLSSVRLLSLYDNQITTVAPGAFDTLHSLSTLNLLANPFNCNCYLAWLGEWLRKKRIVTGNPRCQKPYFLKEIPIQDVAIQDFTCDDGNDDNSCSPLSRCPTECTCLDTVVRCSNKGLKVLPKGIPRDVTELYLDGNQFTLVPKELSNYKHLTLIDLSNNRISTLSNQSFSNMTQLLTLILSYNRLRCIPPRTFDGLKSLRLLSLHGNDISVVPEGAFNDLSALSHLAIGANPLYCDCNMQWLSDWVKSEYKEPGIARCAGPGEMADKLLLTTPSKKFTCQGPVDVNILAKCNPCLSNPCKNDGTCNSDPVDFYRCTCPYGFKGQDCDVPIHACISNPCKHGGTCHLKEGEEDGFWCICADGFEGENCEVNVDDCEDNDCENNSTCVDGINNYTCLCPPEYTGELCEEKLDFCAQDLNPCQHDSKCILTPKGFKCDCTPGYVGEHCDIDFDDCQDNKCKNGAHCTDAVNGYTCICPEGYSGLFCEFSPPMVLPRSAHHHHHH
Method: (§1) The HEK293 cells described and used as in example 1 were transfected either with a ballast plasmid, having no cDNA that encodes in the mammalian cell, or the pXL4911 plasmid encoding the Slit2-D2 protein, or the pXL4912 plasmid encoding the Slit2-D1D2 protein, or pXL5033 encoding the Slit2-N protein described in example 2, The cells were distributed into 96-well plates 48 hours post-transfection, and the Robo1-Fc protein was added in a concentration range of from 0.01 to 3 mg/L for 30 min at 4° C. The Robo1-Fc protein is either the Robo1-Fc L1 biotherapeutic agent, or the Robo1-Fc Slit2-minus mutant, or the Robo1-Fc heparin-minus mutant. The cells were washed and the anti-human Fc antibody labelled with Alexa 488 (ref: A-11013, Invitrogen) was incubated for 30 min at 4° C. The labelled HEK293 cells are then quantified by FACS (Geomean).

[4] = target: T3, Slit2-D1D2 (human, UniProt O94813 31-479); assay: FACS on HEK293 cells transiently expressing Slit2-D1D2
T3 construct: In the FACS assay expressed by transient transfection of pXL4912 in HEK293 cells
T3 sequence: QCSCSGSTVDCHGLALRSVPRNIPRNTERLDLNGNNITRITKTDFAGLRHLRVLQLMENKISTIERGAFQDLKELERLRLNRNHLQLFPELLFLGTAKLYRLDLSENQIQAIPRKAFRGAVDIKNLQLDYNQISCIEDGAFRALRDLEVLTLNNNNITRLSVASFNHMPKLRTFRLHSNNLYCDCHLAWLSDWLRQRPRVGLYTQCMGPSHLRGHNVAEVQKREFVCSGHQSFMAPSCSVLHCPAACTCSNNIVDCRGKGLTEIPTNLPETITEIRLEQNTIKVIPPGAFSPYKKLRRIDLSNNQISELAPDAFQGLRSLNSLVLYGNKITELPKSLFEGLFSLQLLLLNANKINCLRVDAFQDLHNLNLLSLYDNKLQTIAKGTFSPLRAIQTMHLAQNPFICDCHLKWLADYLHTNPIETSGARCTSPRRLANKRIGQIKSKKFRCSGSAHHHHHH
Method: as §1

[5] = target: T1, Slit2-D2; assay: ELISA, Slit2-D2 coated, Robo1-Fc L3 titrated 1 to 0.001 µg/mL
Method: The human Slit2-D2 protein was bound to Immulon-4 enzyme-linked plates (VWR Scientific Inc. Swedesboro, N.J.). A concentration range (from 1 μg/mL to 0.001 μg/mL) of the Robot-Fc L3 fusion protein was added and then detected by means of the peroxidase-conjugated goat anti-human IgG antibody (Sigma; ref. A0170, dilution to 1:50 000). The visualization was carried out with the TMB-H₂O₂ substrate (Interchim; ref UP664780) and the measurements were carried out with a plate reader at 450 nm.

B1: Robo1-Fc L2 (Fc fusion)
chain: SRLRQEDFPPRIVEHPSDLIVSKGEPATLNCKAEGRPTPTIEWYKGGERVETDKDDPRSHRMLLPSGSLFFLRIVHGRKSRPDEGVYVCVARNYLGEAVSHNASLEVAILRDDFRQNPSDVMVAVGEPAVMECQPPRGHPEPTISWKKDGSPLDDKDERITIRGGKLMITYTRKSDAGKYVCVGTNMVGERESEVAELTVLGGGGS[here human IgG4 Fc with changes without letters]
B1: binds [1].

B2: Robo1-Fc Slit2-minus (Fc fusion)
chain: SRLRQEDFPPRIVEHPSDQIVSKGEPATLNCKAEGRPTPTIEWYKGGERVETDKDDPRSHRMLLPSGSLYFLRIVHGRKSRPDEGVYVCVARNYLGEAVSHNASLEVAILRDDFRQNPSDVMVAVGEPAVMECQPPRGHPEPTISWKKDGSPLDDKDERITIRGGKLMITYTRKSDAGKYVCVGTNMVGERESEVAELTVLERPSFV[here human IgG4 Fc with changes without letters]
notes: also called Robo1-Fc Slit2-minus mutant; Robo1-Fc Slit2-minus variant
In the case of B2, the EC50 [2] is reported as 17.8 µg/mL.

B3: Robo1-Fc heparin-minus (Fc fusion)
chain: SRLRQEDFPPRIVEHPSDLIVSKGEPATLNCKAEGRPTPTIEWYKGGERVETDKDDPRSHRMLLPSGSLFFLRIVHGAASRPDEGVYVCVARNYLGEAVSHNASLEVAILRDDFRQNPSDVMVAVGEPAVMECQPPRGHPEPTISWKKDGSPLDDKDERITIRGGKLMITYTRKSDAGKYVCVGTNMVGERESEVAELTVLERPSFV[here human IgG4 Fc with changes without letters]
notes: also called Robo1-Fc heparin-minus mutant; Robot-Fc heparin-minus
With B3 the Kd [3] was 43 nM and the Kd [4] was 41 nM.

B4: Robo1-Fc L3 (Fc fusion)
chain: LRQEDFPPRIVEHPSDLIVSKGEPATLNCKAEGRPTPTIEWYKGGERVETDKDDPRSHRMLLPSGSLFFLRIVHGRKSRPDEGVYVCVARNYLGEAVSHNASLEVAILRDDFRQNPSDVMVAVGEPAVMECQPPRGHPEPTISWKKDGSPLDDKDERITIRGGKLMITYTRKSDAGKYVCVGTNMVGERESEVAELTVLERPSFV[here human IgG4 Fc with changes without letters]
notes: also called Robot-Fc L3
In the case of B4, the EC50 [5] is reported as 0.17 µg/mL.

— patent US20130039912A1 (Sanofi, published 2013)
